Experimental data as given in the supplement of paper PMC11876631.
Residue numbers refer to the chain shown, from its start. Names may count otherwise. ± gives the standard deviation of the averaged measurements. Laboratory Escherichia coli strains with one amino-acid change in an essential protein, pooled on minimal glucose agar with carbenicillin or gentamicin at twice the control MIC (plus kanamycin and chloramphenicol for the plasmids), 48 h. Fold change of barcode share against drug-free plates; higher = less susceptible. Active = above 20 in both replicates (the paper's putatively resistant). '<' = one read or none on drug, '>' = one read or none on a drug-free plate. Shares are relative, so most strains fall below 1 when a few take over. Listed are strains with at least 15 reads on both drug-free plates, and hits; most hits rest on fewer reference reads. Replicate rank correlation about 0.5. Edits are read from barcodes.

B1: dapE M107A (protein)
chain: MSCPVIELTQQLIRRPSLSPDDAGCQALLIERLQAIGFTVERMDFADTQNFWAWRGQGETLAFAGHTDVVPPGDADRWINPPFEPTIRDGMLFGRGAADMKGSLAAAVVAAERFVAQHPNHTGRLAFLITSDEEASAHNGTVKVVEALMARNERLDYCLVGEPSSIEVVGDVVKNGRRGSLTCNLTIHGVQGHVAYPHLADNPVHRAAPFLNELVAIEWDQGNEFFPATSMQIANIQAGTGSNNVIPGELFVQFNFRFSTELTDEMIKAQVLALLEKHQLRYTVDWWLSGQPFLTARGKLVDAVVNAVEHYNEIKPQLLTTGGTSDGRFIARMGAQVVELGPVNATIHKINECVNAADLQLLARMYQRIMEQLVA
B2: dapE M107Q (protein)
chain: B1 chain with A107Q
B3: dapE M107W (protein)
chain: B1 chain with A107W
B4: dapD V45Q (protein)
chain: MQQLQNIIETAFERRAEITPANADTVTREAVNQVIALLDSGALRQAEKIDGQWVTHQWLKKAVLLSFRINDNQVIEGAESRYFDKVPMKFADYDEARFQKEGFRVVPPAAVRQGAFIARNTVLMPSYVNIGAYVDEGTMVDTWATVGSCAQIGKNVHLSGGVGIGGVLEPLQANPTIIEDNCFIGARSEVVEGVIVEEGSVISMGVYIGQSTRIYDRETGEIHYGRVPAGSVVVSGNLPSKDGKYSLYCAVIVKKVDAKTRGKVGINELLRTID
B5: dapD V111Q (protein)
chain: B4 chain with Q45V, V111Q
B6: dapD V45P (protein)
chain: B4 chain with Q45P
B7: dapD V111A (protein)
chain: B4 chain with Q45V, V111A

target: Escherichia coli (laboratory strain); test: barcode share on antibiotic plates over drug-free plates; higher = less susceptible; conditions: antibiotic: carbenicillin; 2× MIC (3.1 µg/mL)
Protocol: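 A pool of E. coli strains, each edited to carry one amino-acid change in an essential protein, was grown for 48 h on minimal glucose agar with or without antibiotic; strain barcodes were sequenced; mean of two replicates.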

Protein	fold change of barcode share
B1	3.52 ± 1.1
B2	0.432 ± 0.059
B3	0.372 ± 0.086
B4	10.1 ± 3.8
B5	8.72 ± 2.8
B6	1.75 ± 0.29
B7	0.486 ± 0.086

same assay, conditions: antibiotic: gentamicin; 2× MIC (MIC 0.45 µg/mL)

Protein	fold change of barcode share
B1	0.0104 ± 0.0056
B2	0.328 ± 0.46
B3	0.00487 ± 0.0039
B6	0.0257 ± 0.023
B7	0.00494 ± 0.0022
